Results from the supplement of paper PMC10441789.
Some of the results follow. Antibody binding of pooled human sera (four to six donors per pool; dilution not stated) to peptides of the Trypanosoma cruzi antigen TSSA on microarrays. Quantile-normalised fluorescence in arbitrary units, mean of duplicate arrays; higher = more binding. No active / inactive call. The uninfected pools are read here as the healthy donors of the same country. The strongest signals lie near the top of the scale (about 60,000).

Tests used:
Experiment in all cases: antibody binding signal (normalised fluorescence) (arbitrary fluorescence units); higher = stronger serum antibody binding to peptide
[1] = system: pooled sera of chronic Chagas disease patients, Bolivia
Protocol: (§1)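 Microarray of 15-residue peptides over residues 30-55 of Trypanosoma cruzi TSSAII, each with 1 to 10 substitutions at naturally variable positions, probed with one serum pool per country.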

[2] = system: pooled sera of chronic Chagas disease patients, Brazil
Protocol: as §1

[3] = system: pooled sera of chronic Chagas disease patients, Colombia
Protocol: as §1

[4] = system: pooled sera of chronic Chagas disease patients, Mexico
Protocol: as §1

[5] = system: pooled sera of chronic Chagas disease patients, USA
Protocol: as §1

[6] = system: pooled sera of uninfected people, Argentina
Protocol: as §1

[7] = system: pooled sera of uninfected people, Bolivia
Protocol: as §1

[8] = system: pooled sera of uninfected people, Brazil
Protocol: as §1

[9] = system: pooled sera of uninfected people, Colombia
Protocol: as §1

[10] = system: pooled sera of uninfected people, Mexico
Protocol: as §1

[11] = system: pooled sera of uninfected people, USA
Protocol: as §1

Sequence | antibody binding signal [1] | antibody binding signal [2] | antibody binding signal [3] | antibody binding signal [4] | antibody binding signal [5] | antibody binding signal [6] | antibody binding signal [7] | antibody binding signal [8] | antibody binding signal [9] | antibody binding signal [10] | antibody binding signal [11]
TPPSGKDNKAATGGA | 263 | 1510 | 478 | 46000 | 2050 | 466 | 474 | 144 | 151 | 109 | 220
DKKPATGEAPSPPGA | 40600 | 45200 | 315 | 301 | 40500 | 882 | 543 | 290 | 246 | 181 | 143
PSGKENKTAAGGTPS | 2280 | 10200 | 11600 | 9370 | 7820 | 5760 | 1810 | 333 | 440 | 570 | 170
TDNKAAAGEAPSQPG | 23700 | 42400 | 214 | 173 | 13000 | 82.3 | 341 | 159 | 86 | 78.4 | 97.2
KEKKTATGETPSPSG | 221 | 259 | 232 | 234 | 4350 | 275 | 115 | 101 | 102 | 119 | 840
NKTATGEAPSQPGAS | 39000 | 41700 | 217 | 320 | 21300 | 565 | 998 | 674 | 445 | 283 | 1080
TDNKAAAGEAPSPSG | 1170 | 14600 | 127 | 146 | 13200 | 110 | 309 | 126 | 90.7 | 88.5 | 103
DNKPAAGGAPSPPGA | 677 | 3320 | 1330 | 224 | 844 | 202 | 318 | 421 | 256 | 345 | 154
SGKENKTATGETPSQ | 3950 | 14800 | 1700 | 2100 | 17200 | 7030 | 3090 | 232 | 630 | 771 | 198
STPPSGKDNKPATGG | 4510 | 31700 | 294 | 39600 | 14800 | 724 | 1500 | 177 | 183 | 316 | 556
TDNKPATGGTPSQPG | 893 | 17700 | 498 | 401 | 532 | 234 | 620 | 689 | 318 | 511 | 152
SGKEKKTAAGGAPSP | 625 | 1950 | 6540 | 4360 | 4510 | 164 | 108 | 104 | 116 | 132 | 120
TPPSGTEKKPATGET | 37600 | 40300 | 350 | 14400 | 7270 | 1040 | 451 | 879 | 254 | 2300 | 1760
